Measurements as given in patent publication US20260176310A1 (NAVIGO PROTEINS, published 2026).
Blank lines part the entries; values can stand above or below the binder they belong to.

Experiments:
[1] = target: T1, hCD26-Fc (human, UniProt P27487 29-766, limits assumed); experiment: SPR, Fc-tagged CD26 captured on protein A
T1 construct: Off-target in SPR; the in-house construct is not described further; also called hCD26-Fc-His; not shown: Fc
Procedure: (§1) Recombinant protein A was immobilized on a High Capacity Amine sensor chip (Bruker) after NHS/EDC activation resulting in approx. 2000 RU with a Sierra SPR-32 system (Bruker). The chip was equilibrated with SPR running buffer (PBS 0.05%, Tween pH 7.3). Injection of ethanolamine after ligand immobilization was used to block unreacted NHS groups. The Fc-tagged FAP and CD26 target molecules were injected with 60 nM followed by the injection of FAP binding proteins. Upon binding, target analyte was accumulated on the surface increasing the refractive index. This change in the refractive index was measured in real time and plotted as response or resonance units versus time. The FAP binding proteins were applied to the chip in serial dilutions with a flow rate of 30 μl/min. The association was performed for 120 seconds and the dissociation for 180 seconds. After each run, the chip surface was regenerated with 30 μl regeneration buffer (10 mM glycine pH 2.0) and equilibrated with running buffer. Binding studies were carried out by the use of the Sierra SPR-32 system (Bruker); data evaluation was operated via the Sierra Analyser software, provided by the manufacturer, by the use of the Langmuir 1:1 model (RI=0). Evaluated dissociation constants (KD) were standardized against the immobilized protein and indicated.

[2] = target: T2, mCD26-Fc (mouse, UniProt P28843 29-760, limits assumed); experiment: SPR, Fc-tagged CD26 captured on protein A
T2 construct: Off-target in SPR; construct not described further; also called mCD26-Fc-His; not shown: Fc
T2 sequence (P28843 29-760 limits assumed): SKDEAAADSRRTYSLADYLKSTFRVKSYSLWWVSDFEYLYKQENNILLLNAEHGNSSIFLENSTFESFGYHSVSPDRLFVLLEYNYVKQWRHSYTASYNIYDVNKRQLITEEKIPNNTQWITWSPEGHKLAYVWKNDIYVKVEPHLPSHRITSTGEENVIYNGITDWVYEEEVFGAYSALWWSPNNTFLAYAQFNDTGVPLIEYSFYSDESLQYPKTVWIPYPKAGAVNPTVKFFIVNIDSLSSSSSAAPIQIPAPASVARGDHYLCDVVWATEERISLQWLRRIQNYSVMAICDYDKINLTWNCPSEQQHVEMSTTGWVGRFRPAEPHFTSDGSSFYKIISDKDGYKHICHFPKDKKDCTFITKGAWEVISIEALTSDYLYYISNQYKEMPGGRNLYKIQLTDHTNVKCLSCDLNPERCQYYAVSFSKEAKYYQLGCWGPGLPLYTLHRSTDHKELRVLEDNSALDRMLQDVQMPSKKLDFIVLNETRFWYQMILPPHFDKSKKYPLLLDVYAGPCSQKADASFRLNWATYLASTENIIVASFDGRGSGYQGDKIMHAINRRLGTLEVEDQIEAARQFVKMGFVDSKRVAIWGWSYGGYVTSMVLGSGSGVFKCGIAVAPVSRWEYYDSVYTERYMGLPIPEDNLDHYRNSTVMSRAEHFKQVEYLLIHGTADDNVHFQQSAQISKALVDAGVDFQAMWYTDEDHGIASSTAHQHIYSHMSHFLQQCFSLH
Procedure: as §1

[3] = target: T3, hFAP-Fc (human, UniProt Q12884 26-760); experiment: SPR (Sierra SPR-32), hFAP-Fc captured on protein A, 1:1 Langmuir
T3 construct: extracellular domain; Made in house in Expi293-F cells; also called hFAP-Fc-His; human FAP; not shown: IgG1-Fc
T3 sequence (looked up): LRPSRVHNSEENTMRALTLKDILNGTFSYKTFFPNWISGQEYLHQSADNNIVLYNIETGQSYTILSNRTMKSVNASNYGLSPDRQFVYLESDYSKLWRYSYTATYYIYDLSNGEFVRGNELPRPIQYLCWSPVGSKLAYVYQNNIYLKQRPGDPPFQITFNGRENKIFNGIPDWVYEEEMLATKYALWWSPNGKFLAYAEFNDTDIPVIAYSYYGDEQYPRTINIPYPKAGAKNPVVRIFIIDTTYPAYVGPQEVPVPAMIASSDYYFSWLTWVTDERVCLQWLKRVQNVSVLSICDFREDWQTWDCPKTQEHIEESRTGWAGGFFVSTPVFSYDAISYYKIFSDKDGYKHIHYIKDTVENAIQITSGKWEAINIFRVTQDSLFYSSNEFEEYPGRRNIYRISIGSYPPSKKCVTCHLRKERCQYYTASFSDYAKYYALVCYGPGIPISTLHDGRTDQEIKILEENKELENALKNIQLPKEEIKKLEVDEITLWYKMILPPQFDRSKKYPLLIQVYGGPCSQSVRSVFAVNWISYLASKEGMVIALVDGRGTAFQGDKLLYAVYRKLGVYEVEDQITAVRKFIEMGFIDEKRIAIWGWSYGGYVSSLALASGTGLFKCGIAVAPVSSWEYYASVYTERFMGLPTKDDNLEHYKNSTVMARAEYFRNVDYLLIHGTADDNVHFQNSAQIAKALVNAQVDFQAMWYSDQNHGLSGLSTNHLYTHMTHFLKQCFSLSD
Procedure: as §1

[4] = target: T3, hFAP-Fc; experiment: ELISA on coated hFAP-Fc (2.5 µg/ml); Affilin dilution series preincubated 24 h at 37 °C in 100% human serum; detection with biotinylated anti-ubiquitin antibody and Streptavidin-HRP
Procedure: (§2) High binding plates (Greiner, 781061) were immobilized with 2.5 μg/ml hFAP-Fc over night at 4° C. Dilution series of 3 µM to 0.07 PM of Affilin® proteins were incubated in 100% human serum or 100% mouse serum for 24 h at 37° C.
(§3) ELISA-plates were washed three times with PBST (PBS+ 0.1% Tween) and blocked with 3% BSA/0.5% Tween/PBS 1 h at rt. After preincubation for 0 h or 24 h in the presence of serum the dilution series were incubated on ELISA-plates for 30 min at room temperature (rt). Wells were washed with PBST and incubated with biotinylated anti-ubiquitin-antibody (1:300) for 30 min at rt. The binding was visualized with Streptavidin-HRP (1:5.000). […] ELISA analysis confirmed the high stability of FAP binding proteins in serum.

[5] = target: T3, hFAP-Fc; experiment: ELISA on coated hFAP-Fc; Affilin in human serum, 0 h
Procedure: as §2, §3

[6] = target: T3, hFAP-Fc; experiment: ELISA on coated hFAP-Fc (2.5 µg/ml); Affilin dilution series in 100% mouse serum, 0 h preincubation; detection with biotinylated anti-ubiquitin antibody and Streptavidin-HRP
Procedure: as §2, §3

[7] = target: T3, hFAP-Fc; experiment: ELISA on coated hFAP-Fc; Affilin in human serum, 24 h at 37° C.
Procedure: as §2, §3

[8] = target: T3, hFAP-Fc; experiment: ELISA on coated hFAP-Fc (2.5 µg/ml); Affilin dilution series in 100% human serum, 0 h preincubation; detection with biotinylated anti-ubiquitin antibody and Streptavidin-HRP
Procedure: as §2, §3

[9] = target: T3, hFAP-Fc; experiment: ELISA on coated hFAP-Fc (2.5 µg/ml); Affilin dilution series preincubated 24 h at 37 °C in 100% mouse serum; detection with biotinylated anti-ubiquitin antibody and Streptavidin-HRP
Procedure: as §2, §3

[10] = target: T3, hFAP-Fc; experiment: ELISA on coated hFAP-Fc; Affilin in mouse serum, 24 h at 37° C.
Procedure: as §2, §3

[11] = target: T3, hFAP-Fc; experiment: ELISA on coated hFAP-Fc; Affilin in mouse serum, 0 h
Procedure: as §2, §3

T1 sequence (P27487 29-766 limits assumed): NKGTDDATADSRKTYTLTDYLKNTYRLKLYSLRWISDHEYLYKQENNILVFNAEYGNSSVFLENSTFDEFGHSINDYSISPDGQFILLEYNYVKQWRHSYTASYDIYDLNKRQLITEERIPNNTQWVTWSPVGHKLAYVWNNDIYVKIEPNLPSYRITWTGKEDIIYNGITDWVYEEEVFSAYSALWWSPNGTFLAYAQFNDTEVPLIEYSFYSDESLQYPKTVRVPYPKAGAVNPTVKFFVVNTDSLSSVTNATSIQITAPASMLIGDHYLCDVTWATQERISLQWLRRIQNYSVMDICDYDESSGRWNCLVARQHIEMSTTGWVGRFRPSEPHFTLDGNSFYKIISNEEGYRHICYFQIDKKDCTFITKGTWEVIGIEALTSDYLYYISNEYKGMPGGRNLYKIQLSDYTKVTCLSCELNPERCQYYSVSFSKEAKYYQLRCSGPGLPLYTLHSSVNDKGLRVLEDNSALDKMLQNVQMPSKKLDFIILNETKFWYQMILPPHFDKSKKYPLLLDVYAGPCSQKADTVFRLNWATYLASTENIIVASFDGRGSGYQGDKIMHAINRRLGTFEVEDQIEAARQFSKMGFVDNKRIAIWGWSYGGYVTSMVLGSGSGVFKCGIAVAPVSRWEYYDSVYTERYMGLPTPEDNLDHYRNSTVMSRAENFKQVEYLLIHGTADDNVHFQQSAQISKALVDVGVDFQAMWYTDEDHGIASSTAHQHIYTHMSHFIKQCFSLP

B1: Affilin®-217863 (designed binder)
chain: MQIFVWTEMHKRITLEVEPSDTIENVKAKIQDKEGIPPDQQHLTWKGKQLEDGRTLSDYNISEWPNLFLRLNLRAA
notes: Ubiquitin mutein
binding result [1]: no binding
binding result [2]: no binding
Kd [3]: 1900 pM

B3: Affilin®-220164 (designed binder)
chain: MQIFVWTDDWKRITLEVEPSDTIENVKAKIQDKEGIPPDQQVLAWRGKQLEDGRTLSDYNIMVWPNLWLRLRAA
notes: Ubiquitin mutein
Kd [4]: 740 pM
Kd [5]: 600 pM
Kd [6]: 2100 pM
Kd [7]: 800 pM
Kd [8]: 550 pM
Kd [9]: 1950 pM
binding result [1]: no binding
binding result [2]: no binding
Kd [10]: 2000 pM
Kd [3]: 3800 pM
Kd [11]: 2100 pM

Further binders by falling Kd [3], results first:

Kd [4]: 1180 pM
Kd [5]: 1200 pM
Kd [6]: 730 pM
Kd [7]: 1200 pM
Kd [8]: 1170 pM
Kd [9]: 1130 pM
binding result [1]: no binding
binding result [2]: no binding
Kd [10]: 1100 pM
Kd [3]: 14000 pM
Kd [11]: 700 pM
B2: Affilin®-217990 (designed binder)
chain: MQIFVKTLTPEWHIIGKTITLEVEPSDTIENVKAKIQDKEGIPPDQQNLAWAGKQLEDGRTLSDYNIQGGSMLMLKLHLRAA
notes: Ubiquitin mutein

Kd [4]: 380 pM
Kd [5]: 300 pM
Kd [6]: 220 pM
Kd [7]: 400 pM
Kd [8]: 320 pM
Kd [9]: 370 pM
binding result [1]: no binding
binding result [2]: no binding
Kd [10]: 400 pM
Kd [3]: 3600 pM
Kd [11]: 200 pM
B4: Affilin®-220257 (designed binder)
chain: MQIFVWTITGKPITLEVEPSDTIENVKAKIQDKEGIPPDQQRLIWAGKQLEDGRTLSDYNIRSWPNLHLVLRLRAGMQIVVHTATGKTITLEVEPSDTIGHVKAKIQDTEGIPPDQQRLIWAGKQLEDGRTLSDYNIEDFPPLHLVLRLRAA
notes: Ubiquitin mutein
